Laboratory results published in the supplement of paper PMC3724861.
The list shows a part of the results.

test system: T1, Caupolican (Caup) homeodomain DNA-binding domain; test: PBM E-score (8-mer, recovered from the published 9-mer minima) (E-score (dimensionless, -0.5 to 0.5)); Drosophila protein; higher = stronger relative binding preference, active = 0.31 or more
T1 sequence: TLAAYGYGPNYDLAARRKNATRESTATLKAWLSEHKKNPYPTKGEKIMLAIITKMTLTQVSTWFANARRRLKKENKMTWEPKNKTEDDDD
How it was run: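 Caup's homeodomain DNA-binding domain (residues 214-303) was produced by in vitro transcription and translation and applied at 100 nM to custom-designed protein binding microarrays. Each value is an enrichment score giving relative binding preference for a short DNA word; higher means stronger. Published 9-mer scores were the minimum of their two constituent 8-mer scores, and the 8-mer values were recovered from those minima. A cutoff of 0.31 marks candidate binding sequences.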

Sequence	PBM E-score
ATGTTAGC	active: 0.314
AGTTGCAC	inactive: 0.0925
AGTCGTGC	inactive: -0.0465
AGGTCCCC	inactive: -0.328
CAGGTGCG	inactive: -0.106
CATTGTGC	inactive: 0.109
CGGCGGCC	inactive: -0.282
TACTAACA	inactive: 0.253
CAAAGTTC	inactive: -0.0431
CTTATTAA	inactive: 0.0685
AGTATTCG	inactive: -0.0184
CAGGGCAG	inactive: -0.156
AATCGGCT	inactive: -0.0112
GCCCATCC	inactive: -0.2
ACCCAGAC	inactive: -0.119
ACATTCTC	inactive: 0.11
ACACCGCG	inactive: 0.0608
CCTTATCA	inactive: 0.108
GAACCGGC	inactive: -0.153
CCTGTGAG	inactive: 0.0227
CTAGGTTC	inactive: -0.0599
GGTACACA	inactive: 0.28
CACAGATG	inactive: 0.135

Sequence	PBM E-score
CAGGAGAA	inactive: -0.0275
AATCCGTG	inactive: 0.0483
CGTGCGGA	inactive: -0.126
GACGTTCC	inactive: -0.0625
GAATACTA	inactive: 0.148
ATAGGTTA	inactive: 0.119
AGTAGACT	inactive: 0.0381
AACACCTT	inactive: 0.152
GACGAGGC	inactive: -0.186
TCTTCCAA	inactive: -0.0276
TAGCCACA	inactive: -0.0162
CAGCATAA	inactive: 0.0511
GGATTCAA	inactive: -0.0694
CATAAAAA	inactive: 0.166
CCTAAATC	inactive: 0.0181
AAACATCG	inactive: 0.217
CTTGTTGA	inactive: 0.26
AATTCTAA	inactive: 0.0854
CGGTCCTA	inactive: -0.123
TGGGGAAA	inactive: -0.0126
ACATTGCT	≥ 0.23
ATTTGCAG	inactive: 0.00423
GCGTTCCA	inactive: -0.0723

Sequence	PBM E-score
CCGCCCAA	inactive: -0.227
AGGCGAAG	inactive: -0.171
CAGACGCC	inactive: -0.147
ATTGGCCG	inactive: -0.0888
CCTTTCAC	inactive: -0.0888
AGCGTGAT	≥ 0.0866
GTACGTCA	inactive: 0.0986
CTACCTTA	inactive: -0.0253
TACAGGAA	inactive: 0.227
GAGTTCTA	inactive: -0.0956
ATGATTCG	inactive: 0.0716
AGTCGTAG	inactive: 0.0274
GCGTTTCC	inactive: -0.101
GCATATTA	inactive: 0.121
CCTTGGCC	inactive: -0.233
CAACGCTC	inactive: -0.00229
CAGAGGAG	inactive: -0.168
ATTCCGGA	inactive: 0.024
GCAAAAAA	inactive: -0.0391
GAAAAAGA	inactive: -0.0311
AGTACTTC	inactive: 0.0751
GCCCTGTA	inactive: 0.113
ATAATCCG	inactive: 0.0845

Sequence	PBM E-score
GTTTTCTA	inactive: 0.0826
GCAGCAGA	inactive: -0.13
ATCTGTGG	inactive: -0.00655
GCGTTACA	inactive: 0.198
ATTTCATC	inactive: 0.0661
GCGCCACC	inactive: -0.198
GCGCGGGA	inactive: -0.183
CGTATCCC	inactive: -0.0781
AGAACCAG	inactive: 0.0333
CGCACCAG	inactive: -0.0961
ATTAAGTG	inactive: 0.145
GGTTCAAA	inactive: -0.0146
TATAATGA	inactive: 0.0576
CAGGAATC	inactive: -0.00187
ACAAGTGT	inactive: 0.297
ATAATTAA	inactive: 0.218
AGCATCAC	inactive: 0.00867
GAGCTCCA	inactive: -0.145
ACATGGAG	inactive: 0.257
GATCGGTA	inactive: -0.00151
AAGACATT	inactive: 0.0764
CGCCCTGA	inactive: -0.108
CTGGTATC	inactive: 0.108

Sequence	PBM E-score
GCATGAAA	inactive: 0.111
GCACCGCC	inactive: -0.267
AGCAGGGC	inactive: -0.162
ACGATCTG	inactive: -0.0202
ACGAACAG	inactive: 0.137
CGCCGATC	inactive: -0.183
GCCAAAAA	inactive: -0.0156
ATAAACAC	inactive: 0.251
AGCCGAAC	inactive: -0.138
CCCCCAAG	inactive: -0.22
CCAGCACG	inactive: 0.0103
GCAACCTA	inactive: 0.0278
GCGGTTCA	inactive: -0.101
GACCGCAA	inactive: -0.095
AAGAACCG	inactive: 0.0113
CATCTCTA	inactive: 0.0541
ACATTCCT	inactive: 0.0891
CTCAGGAC	inactive: 0.011
ATGCACGA	inactive: 0.115
